From PubChem BioAssay (NCI)
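96-well plates; 48 h exposure; 5 concentrations. Endpoints by linear interpolation between flanking doses. Not reached: highest tested concentration assigned. The concentration for 50% growth inhibition is given as GI50.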 The source holds more than one record for some entries. The list is limited to them. An entry can have further records. For some of these results: A record mostly stands for its own series of concentrations, not given here; a value can be the end of its range. For some of these results: The values listed for one entry are repeated measurements across runs, samples, wells, individuals or studies. Marks in square brackets tell the records apart. The letters are not those of the source and start again with each entry.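 TGI marks complete inhibition of growth.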

Tests used:
Experiment in all cases: growth of human tumour cells (NCI), 48 h
ACHN renal = tested on: ACHN renal
HL-60(TB) leukemia = tested on: HL-60(TB) leukemia
IGROV1 ovarian = tested on: IGROV1 ovarian
NCI-H522 lung = tested on: NCI-H522 lung
OVCAR-8 ovarian = tested on: OVCAR-8 ovarian
SF-295 CNS = tested on: SF-295 CNS
OVCAR-4 ovarian = tested on: OVCAR-4 ovarian
CAKI-1 renal = tested on: CAKI-1 renal
EKVX NSCLC = tested on: EKVX NSCLC
HCC-2998 colon = tested on: HCC-2998 colon
HOP-62 NSCLC = tested on: HOP-62 NSCLC
HT29 colon = tested on: HT29 colon
KM12 colon = tested on: KM12 colon
MOLT-4 leukemia = tested on: MOLT-4 leukemia
NCI-H226 lung = tested on: NCI-H226 lung
NCI-H23 lung = tested on: NCI-H23 lung
RPMI-8226 leukemia = tested on: RPMI-8226 leukemia
SF-268 CNS = tested on: SF-268 CNS
SF-539 CNS = tested on: SF-539 CNS
SK-MEL-28 melanoma = tested on: SK-MEL-28 melanoma
SK-MEL-5 melanoma = tested on: SK-MEL-5 melanoma
SK-OV-3 ovarian = tested on: SK-OV-3 ovarian
SNB-19 CNS = tested on: SNB-19 CNS
SNB-78 CNS = tested on: SNB-78 CNS

For Cc1cc2nc3ccc(N=Nc4ccc(N(C)C)cc4)cc3n(-c3ccccc3)c-2cc1=N, the TGI (ACHN renal) was 110 nM and 1.21 µM, the TGI (HL-60(TB) leukemia) was 6.39 µM and 52.7 nM and the TGI (IGROV1 ovarian) was 78.2 nM and 1.22 µM. For the same molecule, the TGI (NCI-H522 lung) was 274 nM and > 100 µM, the TGI (OVCAR-8 ovarian) was 183 nM and > 100 µM and the TGI (SF-295 CNS) was 77.3 nM and > 100 µM.
With Cc1cc(=O)c2c(O)c3c(O)cc(O)c4c5c(O)cc(O)c6c(O)c7c(=O)cc(C)c8c1c2c(c34)c(c65)c78 the GI50 (OVCAR-4 ovarian) was > 100 µM [sample A, 1 test] and 8.51 µM [sample B, mean of 2 tests].
In the case of CC1=C[C@H]2c3c(c(O)c(O)c4oc5cc(O)cc(O)c5c(=O)c34)[C@H](c3cc(O)c(O)c4oc5cc(O)cc(O)c5c(=O)c34)[C@H]2C(C)(C)C1, the TGI (OVCAR-8 ovarian) is reported as 9.18 µM [sample A, 1 test] and > 100 µM [sample B, 1 test].
In the case of CC[C@](O)(C(=O)O)c1cc2n(c(=O)c1CO)Cc1cc3ccccc3nc1-2, the TGI (CAKI-1 renal) is reported as 1.3 µM, 151 nM, 48.2 nM, the TGI (EKVX NSCLC) is reported as 14.8 µM, > 60.8 µM, 84.6 nM and the GI50 (HCC-2998 colon) is reported as 6.67 nM [1 test] and 107 nM [mean of 2 tests]. The TGI (HCC-2998 colon) was 25 nM [1 test] and 893 nM [mean of 2 tests], the TGI (HOP-62 NSCLC) was 1.22 µM, 114 nM, 63.5 nM and the TGI (HT29 colon) was 25 µM, 349 nM, 11.9 µM. For the same molecule, the TGI (IGROV1 ovarian) was 25 µM, 1.31 µM, 1.19 µM, the TGI (KM12 colon) was 15.1 µM, 1.26 µM [mean of 2 tests] and 9.89 µM [mean of 3 tests] and the TGI (MOLT-4 leukemia) was 3.98 nM, 193 nM, 772 nM. For the same molecule, the GI50 (NCI-H226 lung) was 12.4 nM [1 test] and 27 nM, 563 nM [mean of 2 tests], the TGI (NCI-H23 lung) was 28.7 nM, 118 nM, 506 nM and the GI50 (NCI-H522 lung) was 5.2 nM [1 test] and 68 nM [mean of 2 tests]. The TGI (NCI-H522 lung) was 2.71 µM, 290 nM, 2.95 µM, the TGI (OVCAR-8 ovarian) was 25 µM, 289 nM [1 test] and 770 nM [mean of 4 tests] and the TGI (RPMI-8226 leukemia) was 221 nM [mean of 2 tests] and 4.97 µM [mean of 4 tests]. The GI50 (SF-268 CNS) was < 2.5 nM [1 test] and < 12.8 nM, 362 nM [mean of 2 tests], the TGI (SF-268 CNS) was 25 µM [1 test] and 281 nM, 49 µM [mean of 2 tests] and the TGI (SF-539 CNS) was 8.52 nM, 52.4 nM, 168 nM. The TGI (SK-MEL-28 melanoma) was 25 µM, 2.98 µM [mean of 2 tests] and 1.04 µM [mean of 3 tests], the GI50 (SK-MEL-5 melanoma) was 4.03 nM and 40.6 nM and the TGI (SK-OV-3 ovarian) was 25 µM, 620 nM, 452 nM. The TGI (SNB-19 CNS) was 18.1 µM, > 79 µM, 3.71 µM and the TGI (SNB-78 CNS) was 4.54 µM [1 test] and 250 µM [mean of 2 tests].
